{
  "source": "the supplement of paper PMC11417369",
  "note": "Some of the results follow.",
  "data": [
    {"system": "PfHDP1 homeodomain (GST-tagged)", "experiment": "gcPBM binding intensity (ln(normalized median fluorescence intensity)); higher = stronger DNA binding", "outline": "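In this array assay, P. falciparum DNA-binding domains with a GST tag, expressed in E. coli, were applied for 1 h to primer-extended double-stranded 36-bp intergenic genomic probes and negative controls on an Agilent 4 × 180k array. Bound protein was visualised with Alexa488 anti-GST antibody at 488 nm. Binding intensity is the highest Masliner-normalised natural-log median intensity across replicate spots of either probe orientation.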", "values": [
      {"sequence": "TATAAAATAATTAAATGTACATAATATATAAAATAT [XGTACX_site6777]", "gcPBM binding intensity (ln)": 6.69},
      {"sequence": "GATATTACGTGTTTGGTATTTTTTGATGTTAATAGG [CACACA_negctrl_site105]", "gcPBM binding intensity (ln)": 6.97},
      {"sequence": "ATTAATTAAAATAGTTGTACAATCAAAAAAACAAAA [XGTACX_site7660]", "gcPBM binding intensity (ln)": 7.47},
      {"sequence": "AACAAAGAGAAATAAACACACACAAAATAAAGAAAA [CACACA_site8704]", "gcPBM binding intensity (ln)": 7.01},
      {"sequence": "TTTTTGTATGCTTCCCGACTACATTATGTCGTAAAT [GTGCAC_negctrl_site164]", "gcPBM binding intensity (ln)": 6.68},
      {"sequence": "AGTTCATATTTAAAAAGTACATATTTAAAAACTTCT [XGTACX_site4882]", "gcPBM binding intensity (ln)": 6.16},
      {"sequence": "TTTGAACTTTTATATACACACATTATTATAGTATAG [CACACA_site6851]", "gcPBM binding intensity (ln)": 6.71},
      {"sequence": "AAAAAAAAAAAAAAATGTACTTTTATTATTAATATA [XGTACX_site6357]", "gcPBM binding intensity (ln)": 6.23},
      {"sequence": "ATGCATATATTTATGTGTACATATATTTGTAGGGGG [XGTACX_site6063]", "gcPBM binding intensity (ln)": 8.07},
      {"sequence": "ATATCGTTTTTAAATTGTACATTCACTATAGAATAA [XGTACX_site6442]", "gcPBM binding intensity (ln)": 6.87},
      {"sequence": "TTTATTTTTCATTGGGGTACACAAGTTTATTTTTGA [XGTACX_site4262]", "gcPBM binding intensity (ln)": 7.03},
      {"sequence": "TTCTTTGTTTTTTTTTTTTTTTTAAAAGATAATATT [XGTACX_negctrl_site381]", "gcPBM binding intensity (ln)": 6.38},
      {"sequence": "TATATCGCCTTCAAAAGTACTCATATAAAAAAAAAA [XGTACX_site7123]", "gcPBM binding intensity (ln)": 6.14},
      {"sequence": "ATTTTTTCTTTTCGATGTACCCTTCTTATTCTTTAT [XGTACX_site3782]", "gcPBM binding intensity (ln)": 7.45},
      {"sequence": "ATATATTTATTTTGTGCACACAACGCAAACCTTTTA [CACACA_site3508]", "gcPBM binding intensity (ln)": 11.3},
      {"sequence": "TTTTTTTTATTATAAATATATATATTATAAAACGAA [XGTACX_negctrl_site189]", "gcPBM binding intensity (ln)": 6.72},
      {"sequence": "ACCCAAGAGAAAAGAGAAAGAAATATGTGTATATTG [GTGCAC_negctrl_site214]", "gcPBM binding intensity (ln)": 6.86},
      {"sequence": "AAAAAAAACAGACACACACACACATATACATACATA [CACACA_site2665]", "gcPBM binding intensity (ln)": 6.77},
      {"sequence": "TTATAGTAATAATAATGTACATTTATACACATATAT [XGTACX_site1965]", "gcPBM binding intensity (ln)": 6.76},
      {"sequence": "ATATATATATATATAACATGCAAAGTTCAAAAAAAA [TGCATGCA_site943]", "gcPBM binding intensity (ln)": 9.14},
      {"sequence": "AAATTAAAAATAATTACACACATAGAAAAGTTATAT [CACACA_site7137]", "gcPBM binding intensity (ln)": 6.44},
      {"sequence": "TTTTCAGAAAGACATGCATACAAAAATAAAAAAGAT [TGCATGCA_site814]", "gcPBM binding intensity (ln)": 7.38},
      {"sequence": "TTTTGCAAATATTACTGTACACAATCTCATATAATT [XGTACX_site2584]", "gcPBM binding intensity (ln)": 8.7},
      {"sequence": "TCAAAAAAAATTTTAGTGCATATTTTAGTCAAAACA", "gcPBM binding intensity (ln)": 8.93},
      {"sequence": "CATTCTACAATAAAAAGTACATATATATATTATATA [XGTACX_site921]", "gcPBM binding intensity (ln)": 6.61},
      {"sequence": "AAATTAAATGATAGAGCATGCGCTAAAAATGAGAAA [TGCATGCA_site937]", "gcPBM binding intensity (ln)": 7.66},
      {"sequence": "TTTTTATAACATAAAAGTACATATTTTTAATTTAAT [XGTACX_site4394]", "gcPBM binding intensity (ln)": 5.95},
      {"sequence": "ACACATATAATAGTTACATGCAAAAATACTTTTATT [TGCATGCA_site785]", "gcPBM binding intensity (ln)": 6.55},
      {"sequence": "ATTTAAATAATATGTACACACATTTAAAAAGTTATA [CACACA_site7347]", "gcPBM binding intensity (ln)": 6.48},
      {"sequence": "TAATATTTCGTTAAGTTTTAAAGAAAAAAAAAAAAA [CACACA_negctrl_site1253]", "gcPBM binding intensity (ln)": 5.9},
      {"sequence": "ATATGTATAAAAATCCGTACATAAGTGTGCGTATAT [XGTACX_site4376]", "gcPBM binding intensity (ln)": 8.39},
      {"sequence": "ATAAATAATATGTAAACACACAAAAAATAAAAATGA [CACACA_site1178]", "gcPBM binding intensity (ln)": 6.74},
      {"sequence": "ATGTTTGAGCCTAAGGTGCATATAAAAATATATGTG [GTGCAC_site9690]", "gcPBM binding intensity (ln)": 9.09},
      {"sequence": "TACTAAGAAGTATTTACACACCAACAAGGCGAAAAA [CACACA_site2944]", "gcPBM binding intensity (ln)": 6.3},
      {"sequence": "ACATATATATATATATATATATATATATATAGATAG [CACACA_negctrl_site783]", "gcPBM binding intensity (ln)": 7.64},
      {"sequence": "ATAAAGAAATTACACACATGCAATGAAAAAAAAAAA [TGCATGCA_site406]", "gcPBM binding intensity (ln)": 6.25},
      {"sequence": "CTTTTTACTTAATACACACACACACTAAAAAAAAAA [CACACA_site6574]", "gcPBM binding intensity (ln)": 7.19},
      {"sequence": "ACAAAAAAATATTTATGTACTTATTATATTTATAAT [XGTACX_site2059]", "gcPBM binding intensity (ln)": 6.1},
      {"sequence": "AAAACTAAATGTTATTCGCACACGGAATTTATTTAA [CACACA_site9221]", "gcPBM binding intensity (ln)": 6.46},
      {"sequence": "ATATATATTATATATGCATGCCAAATCTTTATAAAC [TGCATGCA_site1042]", "gcPBM binding intensity (ln)": 6.81},
      {"sequence": "ATTCCAGAAATATATTAACAAGGAAAATATAAAAAT [CACACA_negctrl_site343]", "gcPBM binding intensity (ln)": 6.46},
      {"sequence": "TTTTGAATATGGATCTTATATATATTAAATAAATAA [CACACA_negctrl_site344]", "gcPBM binding intensity (ln)": 5.97},
      {"sequence": "ATAAAATGATGTATCTGTGTATGTTTATTTTGTTTT [XGTACX_negctrl_site367]", "gcPBM binding intensity (ln)": 6.29},
      {"sequence": "TATTTCAAACTGTTCTCACACACGAAATTAGAAATG [CACACA_site611]", "gcPBM binding intensity (ln)": 6.29},
      {"sequence": "ATTATATACAAATAAAGTACATAAACAAATTCAGAA [XGTACX_site1187]", "gcPBM binding intensity (ln)": 6.24},
      {"sequence": "AAAAAAAAAAGAAATTGTACTTTTTGTTTAATAATT [XGTACX_site4681]", "gcPBM binding intensity (ln)": 6.18},
      {"sequence": "ATATTTTGTTATGAAACACACACATATATATATATA [CACACA_site9216]", "gcPBM binding intensity (ln)": 9.21},
      {"sequence": "TTGAGCCTACAAAAGGGTACACATTCAATTTATTTT [XGTACX_site6570]", "gcPBM binding intensity (ln)": 6.1},
      {"sequence": "GAAACGTTTTTTCAGTGTACATTTTACCGATTTGTA [XGTACX_site8249]", "gcPBM binding intensity (ln)": 6.83},
      {"sequence": "TAGTATAATATATATTGTACGTTTTAATTGTTTATA [XGTACX_site2731]", "gcPBM binding intensity (ln)": 6.24},
      {"sequence": "AAAAAAAAAAAACACACACACAAATACAAATACATA [CACACA_site415]", "gcPBM binding intensity (ln)": 6.89},
      {"sequence": "AAACTGAAAAAAATATGTACATATTTATATCTTATA [XGTACX_site3011]", "gcPBM binding intensity (ln)": 6.28},
      {"sequence": "TAAAGCAACTGAAACACACAAATTTTTTTTTTTTTT [CACACA_site7499]", "gcPBM binding intensity (ln)": 6.01},
      {"sequence": "ATTGTATAAAAATGTACATGCAATAAATTTAGTTCT [TGCATGCA_site675]", "gcPBM binding intensity (ln)": 6.82},
      {"sequence": "ATATAACATTGTTTTGCATGTAAATATTCAATTTTT [TGCATGCA_site758]", "gcPBM binding intensity (ln)": 6.44},
      {"sequence": "TCAAATTTAATCATAACACACATTCACATATGAATT [CACACA_site3199]", "gcPBM binding intensity (ln)": 6.28}
    ]}
  ]
}
